Measured values reported in PubChem BioAssay AID1508642 (National Center for Advancing Translational Sciences (NCATS), 2021).
Among all 43,000 compounds or so, about 200 (0.47%) were called active. Inconclusive means that the source gave no clear call. Such entries were picked first, then a sample of the others. Calls follow the shape of the dose curve; as a rule, active = well fitted cell-killing curve with a large enough effect; inconclusive = small, poorly fitted or top-dose-only effect, or effect the other way; inactive = flat fitted curve, though single readings scatter. Potencies beside an inconclusive call are fits to weak or partial responses and may not hold up.

Assay: Cell viability qHTS assay in S16 Pmp22-F2sN cells; also: nearly all actives have a fitted effect of over 65% in size
Settings: S16 Pmp22-F2sN Schwann cells viability, CellTiter-Glo, 24 h; series mostly up to 57.5 µM
Method in brief: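 Used to flag compounds lowering reporter output through toxicity, this quantitative HTS measures ATP-based CellTiter-Glo luminescence in S16 Pmp22-F2sN Schwann cells after 24 h compound exposure at 37C.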
Potency is read from the fitted curve at half-maximal effect; tags tell the direction and shape of the fitted curve.

Row | Structure (SMILES) | Potency
1 | COc1cc(-c2noc(-c3cc(C)[nH]n3)n2)cc(OC)c1OC | inconclusive: 39.8 µM [cytotoxic, single point]
2 | CC(C)c1nnc(NC(=O)c2nc(S(=O)(=O)Cc3ccccc3)ncc2Cl)s1 | inconclusive: 39.8 µM [cytotoxic, single point]
3 | O=C(Nc1ccc(F)c(Cl)c1)C1CCCN1S(=O)(=O)c1ccc(F)cc1 (stereo not given) | inconclusive: 17.8 µM [cytotoxic, partial curve, poor fit]
4 | Cc1ccc(C)c(CN2C(=O)C(O)(c3c[nH]c4ccccc34)c3ccccc32)c1 (stereo not given) | inconclusive: 39.8 µM [cytotoxic, partial curve, poor fit]
5 | CCOC(=O)CSc1ncnc2c1c(-c1ccccc1)cn2-c1ccc(OC)cc1 | inconclusive: 0.0251 µM [cytotoxic, full curve, poor fit]
6 | COc1ccc(CCNC(=O)CCCn2c(=O)c3cccn3c3ccc(F)cc32)cc1OC | inconclusive: 0.282 µM [rising, full curve, poor fit]
7 | Cc1sc2c(c1C)c(=O)n(Cc1ccccc1)c(=O)n2CC(=O)Nc1cccc(Cl)c1 | inconclusive: 35.5 µM [cytotoxic, single point]
8 | COc1ccc(NC(=O)c2nc(S(=O)(=O)Cc3ccc(C)cc3)ncc2Cl)cc1 | inconclusive: 39.8 µM [cytotoxic, single point]
9 | O=C(CCS(=O)(=O)c1nc(-c2cccs2)cc(C(F)(F)F)n1)Nc1cccc(O)c1 | inconclusive: 39.8 µM [cytotoxic, single point]
10 | CCOc1ccccc1N(CC)C(=O)c1cc2ccc3cccnc3c2[nH]1 | inconclusive: 28.2 µM [cytotoxic, single point]
11 | CCOc1ccccc1NC(=O)CN1C(=O)C(=O)c2ccccc21 | inactive
12 | O=C(NCCCN1CCN(c2cccc(Cl)c2)CC1)c1nnc(Cc2ccc(F)cc2Cl)o1 | inconclusive: 31.6 µM [cytotoxic, single point]
13 | Cc1ccc(N2C(=O)C(CC(=O)Nc3ccccc3)N(CCC3=CCCCC3)C2=O)cc1 (stereo not given) | inconclusive: 39.8 µM [cytotoxic, partial curve, poor fit]
14 | COc1ccccc1C(=O)Nc1c(C(=O)Nc2ccc(C)cc2)oc2ccccc12 | inactive
15 | COc1ccc(CCC(=O)NCc2ccc3c(c2)CCN3C(=O)c2cccc(C)c2)cc1 | inconclusive: 25.1 µM [cytotoxic, partial curve, poor fit]
16 | CCOc1ccc(-c2nonc2NC(=O)c2oc3cc(Br)ccc3c2C)cc1 | inconclusive: 5.62 µM [cytotoxic, partial curve]
17 | Cc1cccc(N2CCN(C(=O)c3nn(C)c4c3CS(=O)(=O)c3ccccc3-4)CC2C)c1 (stereo not given) | inconclusive: 0.158 µM [rising, full curve, poor fit]
18 | Cc1ccc(C)c(Nc2nn3c(=O)c4ccc(C(=O)NCc5cccs5)cc4nc3s2)c1 | inconclusive: 35.5 µM [cytotoxic, single point]
19 | CN(C1CCCCC1)S(=O)(=O)c1ccc2c(c1)c(=O)c(C(=O)NCc1ccc(Cl)cc1)cn2C | inactive
20 | O=C(CN1C(=O)CC(c2ccc(F)cc2)=Nc2ccccc21)NCc1ccccc1Cl | inconclusive: 39.8 µM [cytotoxic, single point]

Row | Structure (SMILES) | Potency
21 | CC1CCN(c2nc(-c3ccc(Br)cc3)nc3ccccc23)CC1 | inactive
22 | CC1CCCCN1CCCNC(=O)Cn1ncc2c3ccccc3n(Cc3ccccc3F)c2c1=O (stereo not given) | inconclusive: 39.8 µM [cytotoxic, single point]
23 | COc1cc(Cl)c(NS(=O)(=O)c2ccc(-c3coc(C)n3)cc2)c(OC)c1 | inactive
24 | Cc1ccccc1Nc1c(-c2ccc(N3CCOCC3)cc2)nc2ccc(Cl)cn12 | inactive
25 | COc1ccc(C(=O)NCC(c2ccco2)S(=O)(=O)c2cccs2)cc1 (stereo not given) | inconclusive: 39.8 µM [cytotoxic, single point]
26 | COc1ccc(-c2cccc(NS(=O)(=O)c3cc(C)ccc3OC)c2)nn1 | inconclusive: 39.8 µM [cytotoxic, single point]
27 | Cc1cccc(N2CCN(c3ncnc4onc(C)c34)CC2C)c1 (stereo not given) | inconclusive: 14.1 µM [cytotoxic, partial curve]
28 | CCOC(=O)c1ccc(NC(=O)c2c(NCc3cc(OC)c(OC)cc3OC)sc3c2CCCC3)cc1 | inconclusive: 35.5 µM [cytotoxic, partial curve, poor fit]
29 | COc1ccc(-n2cc(-c3ccccc3)c3c(NCCc4ccc(OC)c(OC)c4)ncnc32)cc1 | inconclusive: 25.1 µM [cytotoxic, partial curve]
30 | CCN1CCN(c2cc3c(cc2F)c(=O)c(S(=O)(=O)c2cc(C)cc(C)c2)cn3CC)CC1 | inconclusive: 39.8 µM [cytotoxic, single point]
31 | O=C(CC1(O)C(=O)N(Cc2ccccc2)c2ccc(Br)cc21)c1ccccc1 (stereo not given) | inactive
32 | CCOC(=O)c1oc2ccc(S(=O)(=O)n3nc(-c4cc(OCC)c(OCC)c(OCC)c4)cc3N)cc2c1C | inactive
33 | Cc1ccc(OCC(=O)Nc2ccc(S(=O)(=O)N(Cc3ccccc3)c3ccccc3)cc2)cc1 | inconclusive: 31.6 µM [cytotoxic, single point]
34 | CCOC(=O)C1CCCN(C(=O)c2[nH]c3ccccc3c2Sc2ccc(Cl)cc2)C1 (stereo not given) | inconclusive: 25.1 µM [cytotoxic, partial curve, poor fit]
35 | O=C(NCc1ccccc1Cl)c1cc2cccc3c2n1CCS3 | inconclusive: 39.8 µM [cytotoxic, single point]
36 | Cc1ccc(CNC(=O)c2ccc(-c3nc(CS(=O)(=O)c4ccc(C)cc4)c(C)o3)cc2)cc1 | inconclusive: 25.1 µM [cytotoxic, single point]
37 | Cc1ccc(S(=O)(=O)N2CCC(n3c(C)nc4cccnc43)CC2)c(C)c1 | inconclusive: 10 µM [cytotoxic, partial curve]
38 | CCc1cccc(NC(=O)c2ccc(CNS(=O)(=O)c3ccc4c(c3)C(C)(C)C(=O)N4C)cc2)c1 | inconclusive: 20 µM [cytotoxic, single point]
39 | Cc1cccc(CCNC(=O)C2CCN(c3nc4ccccc4nc3C(F)(F)F)CC2)c1 | inconclusive: 31.6 µM [cytotoxic, single point]
40 | CCOC(=O)c1cnc2ccc(Cl)cc2c1Nc1ccc(N2CCOCC2)cc1 | inconclusive: 31.6 µM [cytotoxic, single point]

Row | Structure (SMILES) | Potency
41 | O=C(Nc1ccc(C(=O)N2CCN(c3ccccc3)CC2)cc1)c1nsc2ccccc12 | inconclusive: 39.8 µM [cytotoxic, single point]
42 | CCCN(CCC)CCNC(=O)C1CCN(c2nc3ccc(CC)cc3s2)CC1 | inconclusive: 39.8 µM [cytotoxic, single point]
43 | COCc1cc(C)nc2sc(C(=O)Nc3cc(C)ccc3F)c(N)c12 | inconclusive: 31.6 µM [cytotoxic, single point]
44 | CCOc1ccc(OCC)c(Nc2nc3ccc(Cl)cc3n3cnnc23)c1 | inconclusive: 22.4 µM [rising, partial curve, poor fit]
45 | O=C(CSc1nnc2[nH]c(=O)cc(-c3ccccc3)n12)Nc1cc(C(F)(F)F)ccc1Cl | inactive
46 | COC(=O)c1ccc2c(=O)n(CCCCCC(=O)N3CCN(c4ccc(OC)cc4)CC3)c(=O)[nH]c2c1 | inconclusive: 25.1 µM [cytotoxic, single point]
47 | CC1=C(C(=O)Nc2ccc(C)cc2C)C(c2ccccc2)n2ncc(C(=O)Nc3ccccc3)c2N1 (stereo not given) | inconclusive: 17.8 µM [cytotoxic, single point]
48 | CCc1ccc(Nc2nc(N)nc(CSc3nc4ccccc4s3)n2)cc1 | inconclusive: 22.4 µM [cytotoxic, partial curve, poor fit]
49 | CCN(Cc1ccccc1)Cc1c(O)ccc2c(=O)c(-c3ccccc3Cl)c(C(F)(F)F)oc12 | inconclusive: 7.94 µM [cytotoxic, partial curve, poor fit]
50 | O=C(NCc1cccc(F)c1)c1cccc(NC(=O)c2nsc3ccccc23)c1 | inconclusive: 39.8 µM [cytotoxic, single point]
51 | CCOCc1cc(CN2CCN(c3cccc(Cl)c3)CC2)c(O)c2ncccc12 | inconclusive: 3.16 µM [cytotoxic, partial curve, poor fit]
52 | CC(=O)c1ccc(N2CCN(S(=O)(=O)c3ccc4[nH]c5c(c4c3)CCCC5)CC2)cc1 | inconclusive: 12.6 µM [cytotoxic, partial curve]
53 | O=c1c(N2CCN(c3cccc(C(F)(F)F)c3)CC2)csc2ccc(Cl)cc12 | inactive
54 | COC(=O)c1cc2oc3ccccc3c2n1Cc1cc(C)ccc1C | inactive
55 | CC(=O)c1cccc(NC(c2ccc(F)cc2)c2nnc(-c3ccccc3)o2)c1 (stereo not given) | inconclusive: 39.8 µM [cytotoxic, single point]
56 | O=C1CC(c2ccccc2)Cc2[nH]c(=O)c(-c3nc(-c4ccc(Cl)cc4)cs3)cc21 (stereo not given) | inconclusive: 0.631 µM [cytotoxic, full curve]
57 | COC(=O)c1c(-c2ccc(Cl)cc2)noc1N1CCN(c2cccc(C(F)(F)F)c2)CC1 | inconclusive: 39.8 µM [cytotoxic, single point]
58 | Cc1cccc(C)c1Nc1c(-c2ccsc2)nc2ccc(Cl)cn12 | inactive
59 | CCOC(=O)CC(NC(=O)N1CCC(CN2CCC(C)CC2)CC1)c1ccccc1 (stereo not given) | inconclusive: 0.0891 µM [rising, full curve, poor fit]
60 | CCn1cc(C(=O)OCC(=O)Nc2ccc(F)cc2F)c(=O)c2ccc(C)nc21 | inconclusive: 28.2 µM [rising, partial curve, poor fit]
